Assay results: article PMC4336329 (PLoS ONE, 2015)
Among all 310,000 compounds or so, about 14,000 (4.5%) showed an effect of 50% or more. Effects have a minus sign here. This is one part of the list.

Molecular target: human ether-à-go-go-related gene (hERG) potassium channel (human, UniProt Q12809)
Assay: primary screen, population patch clamp on CHO cells stably expressing hERG
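Also: peak tail current of the secondary pulse compared with the same well before compound.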

Sequence of human ether-à-go-go-related gene (hERG) potassium channel (Q12809 whole entry, looked up): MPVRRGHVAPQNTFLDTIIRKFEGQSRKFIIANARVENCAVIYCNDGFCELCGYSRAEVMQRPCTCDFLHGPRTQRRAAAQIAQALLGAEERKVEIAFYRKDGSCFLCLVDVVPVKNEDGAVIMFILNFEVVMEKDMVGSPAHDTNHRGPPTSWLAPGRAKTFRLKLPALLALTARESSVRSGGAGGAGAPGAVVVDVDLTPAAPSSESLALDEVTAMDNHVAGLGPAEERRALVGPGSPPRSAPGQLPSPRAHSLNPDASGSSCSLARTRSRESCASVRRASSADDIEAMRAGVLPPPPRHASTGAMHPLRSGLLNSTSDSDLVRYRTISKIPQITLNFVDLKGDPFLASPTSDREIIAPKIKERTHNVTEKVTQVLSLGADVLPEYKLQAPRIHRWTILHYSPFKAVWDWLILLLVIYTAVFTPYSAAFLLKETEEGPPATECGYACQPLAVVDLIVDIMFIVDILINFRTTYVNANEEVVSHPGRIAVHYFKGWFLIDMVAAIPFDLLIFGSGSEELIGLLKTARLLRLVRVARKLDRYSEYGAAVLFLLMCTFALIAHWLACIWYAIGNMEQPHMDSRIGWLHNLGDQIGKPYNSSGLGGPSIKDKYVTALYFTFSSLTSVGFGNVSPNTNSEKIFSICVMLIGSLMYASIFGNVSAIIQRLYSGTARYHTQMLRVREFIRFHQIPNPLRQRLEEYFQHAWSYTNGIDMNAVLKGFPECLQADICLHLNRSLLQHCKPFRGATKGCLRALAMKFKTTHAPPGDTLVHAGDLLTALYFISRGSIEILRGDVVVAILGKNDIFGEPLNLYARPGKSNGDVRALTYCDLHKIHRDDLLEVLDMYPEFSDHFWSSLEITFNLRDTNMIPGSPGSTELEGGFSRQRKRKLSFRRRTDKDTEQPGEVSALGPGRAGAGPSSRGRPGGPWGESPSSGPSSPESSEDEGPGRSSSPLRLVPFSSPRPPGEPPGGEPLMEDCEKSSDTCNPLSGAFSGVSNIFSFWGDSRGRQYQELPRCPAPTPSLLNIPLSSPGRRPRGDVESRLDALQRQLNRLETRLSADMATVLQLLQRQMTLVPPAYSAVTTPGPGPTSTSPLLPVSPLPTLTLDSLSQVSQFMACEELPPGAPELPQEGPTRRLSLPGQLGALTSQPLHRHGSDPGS

Compound | hERG current change (%, negative = inhibition) at 10uM
CC(C)C(NC(=O)C12CC3CC(CC(C3)C1)C2)C(=O)N/N=C/C1=C(N2CCOCC2)C(=C\c2cccc([N+](=O)[O-])c2)/CC1 (centres unmarked) | -9.5%
Cn1c(O)c(C(=Nc2ccc(F)cc2)c2ccccc2Cl)c(=O)n(C)c1=O | 19.7%
Cc1cc(C(=O)Nc2nnc(-c3ccccc3)s2)no1 | 8.46%
c1ccc(CN2CCN(c3nc(-c4ccccn4)nc4ccccc34)CC2)cc1 | 5.45%
Cc1nnc(SCC(=O)NC2CCCC2)s1 | 12.8%
O=C(N/N=C/c1cccs1)c1ccco1 | 11.8%
CC1=NN(c2ccccc2)C(=O)/C1=C/c1c(O)[nH]c(=S)[nH]c1=O | -3.19%
CCCSc1sc(C(=O)OC)c(-c2cccs2)c1C#N | -6.78%
CCC(=O)c1ccc(OCC(=O)Nc2cc(S(=O)(=O)N3CCCCC3)ccc2OC)cc1 | -19.8%
O=C(CNC(=O)c1ccc(S(=O)(=O)N2CCCC2)cc1)N/N=C/c1ccccc1 | -42.5%
COc1cccc(-n2c(SCC(=O)NCCc3ccccc3)nnc2-c2ccoc2C)c1 | -76.8%
Cc1cc(C)n(CC(O)CN(c2cccc([N+](=O)[O-])c2)S(=O)(=O)c2ccccc2)n1 (centres unmarked) | 7.08%
Cc1cc(C)cc(NC(=S)/N=C(\N)Nc2nc(C)c3ccccc3n2)c1 | 11%
Cc1ccc(CN2C(=O)CSc3ccc(C(=O)NCCN4CCOCC4)cc32)cc1 | 10.8%
CS(=O)(=O)N(CC(=O)NCc1ccc2c(c1)OCO2)Cc1ccc(Cl)cc1 | -49.5%
COc1ccc(S(=O)(=O)N2CCCCCC2)cc1N(C)S(=O)(=O)c1ccccc1 | -19%
COc1ccc(CC2(CO)CCN(Cc3ccc4c(c3)CCO4)CC2)cc1 | -65.7%
O=C(CN1C(=O)NC2(CCCC2)C1=O)OCCOc1ccc(Cl)cc1 | -10.2%
COCCn1cnnc1SCC(=O)Nc1sc2c(c1C#N)CCC2 | 8.01%
CC1Nc2ncnc(N3CCN(c4ccccc4)CC3)c2N(Cc2ccccc2)C1=O.O=C(O)C(F)(F)F (centres unmarked) | 16.1%
Cc1cccc(CC2CC(=O)N(C3CCCCC3)C2=O)c1 (centres unmarked) | 0.986%
CCCCCN(C(=O)CCC(=O)OCC(=O)Nc1ccc(C)cc1F)c1c(N)n(CCCC)c(=O)[nH]c1=O | 5.51%

Compound | hERG current change (%, negative = inhibition) at 10uM
CC(C)C(NS(=O)(=O)c1cccs1)C(=O)N(C)Cc1ccccc1 (centres unmarked) | -10.2%
Cn1nc(NC(=O)C2CCC2C(=O)O)c2c(F)cccc21 (centres unmarked) | -0.347%
COC(=O)c1sc2nc(-c3ccccc3)c3c(c2c1N)CCCC3 | -8.25%
CCOc1cc(/C=N/NC(=O)CCCC(=O)NC2CCCCC2)ccc1O | 7.13%
Cc1c(Cl)cccc1NC(=O)CSc1nc(=O)n(CCCN2CCOCC2)c2c1CCC2 | -47.1%
Brc1ccc(CSc2ccc(-c3ccco3)nn2)cc1 | 21.2%
CN1C(=O)/C(=C\c2ccc(N3CCCCC3)o2)C(=O)NC1=S | 8.05%
CC1(C)CC(=O)C=C(/C=C/c2ccccc2)C1 | -7.72%
Cc1nn(-c2ccccc2)c(C)c1NC(=O)COC(=O)c1cc([N+](=O)[O-])ccc1NCCO | -13.7%
COc1ccccc1NC(=O)Nc1nc(CC(=O)NC2CCCC2)cs1 | -22.1%
O=C1C2C3C=CC(C4CC34)C2C(=O)N1/N=C/c1ccc([N+](=O)[O-])s1 (centres unmarked) | -10.8%
O=C1CCCC2=C1C(c1cn(-c3ccccc3)nc1-c1cccs1)c1c([nH]c(=O)[nH]c1=O)N2 (centres unmarked) | 13%
Cc1onc(C(=O)N2CCOCC2)c1[N+](=O)[O-] | 19.8%
COc1ccc(CCNc2ccc(C(=O)O)cc2[N+](=O)[O-])cc1OC | 15.8%
COC(=O)[C@H](CCSC)NC(=O)Nc1ccc(C(C)=O)cc1 | 9.56%
Cc1ccc(S(=O)(=O)NCC(=O)OCC(=O)c2c(N)n(C)c(=O)n(C)c2=O)cc1 | 19.2%
COc1ccc(CN2CCOCCOCCN(Cc3ccc(OC)cc3)CCOCCOCC2)cc1 | -77.3%
CCC(=O)Nc1cccc(C2=NOC3(C2)C[C@@H](C(N)=O)N(C(=O)COc2ccc(Cl)cc2)C3)c1 (some centres unmarked) | 4.12%
COc1ccc(-c2nc(CSCC(=O)NC3CCCc4ccccc43)c(C)o2)cc1OC (centres unmarked) | -0.229%
Cc1c(O)ccc2c(=O)c(-c3nncn3-c3ccccc3)coc12 | 21.2%
O=C(Cc1ccc(S(=O)(=O)N2CCCCC2)s1)Nc1ccc(F)c(F)c1 | -31.1%
NC1=NC(=O)/C(=C/c2cn(Cc3ccccc3)c3ccccc23)S1 | 8.82%

Compound | hERG current change (%, negative = inhibition) at 10uM
CC(=O)c1cc2c(cc1NC(=O)c1ccc(C)cc1)OCCO2 | -0.576%
CCCCN(C)CCCNC(=O)c1ccc2c(c1)N(CC)C(=O)c1ccccc1S2=O (centres unmarked) | 13.7%
CN1CCC(Oc2ccccc2Sc2ccc(C(F)(F)F)cc2)CC1.O=C(O)C(=O)O | -63.2%
COC(=O)c1sc(NC(=O)COc2ccc(C)cc2)nc1C | 11.4%
Cn1c(Cn2nnc3ccccc32)nnc1SCC(=O)Nc1nccs1 | -2.45%
Cc1cc(=O)[nH]c(N2CCN(Cc3ccccc3)CC2)n1 | -2.95%
CC(C)CN1C(=O)C(=O)N(CC(=O)NC2CCCc3ccccc32)C1=O (centres unmarked) | 11.5%
COC(=O)CSc1nc(N)c(C#N)c(-c2ccco2)c1C#N | 5.03%
CCOC(=O)C1CCN(C(=O)c2c(-c3c(Cl)cccc3Cl)noc2C)CC1 | -15.9%
COc1ccc(OC)c(NC(=O)c2cc3c(Cl)nc4ccccc4c3s2)c1 | 17%
CNC(=O)CSc1nc2c(c(=O)n(C)c(=O)n2C)n1Cc1ccc(C)cc1 | -29.3%
COc1ccccc1C(=O)Nc1ccc2c(c1)nc1n2CCN(C2CCCCC2)C1 | -33.1%
CSc1ccc(NC(=O)Nc2cccn(Cc3ccccc3)c2=O)cc1 | 16.2%
Cc1ccc(NC(=S)NCCN2CCOCC2)cc1F | -2.1%
CCCCN(CC(=O)NCCOC)C(=O)Cn1nnc2ccccc21 | 15.1%
CCc1ccc(C2C(C#N)=C(N)C(C#N)(C#N)C3=CCC(C(C)(C)C)CC32)cc1 (centres unmarked) | 5.1%
CC(=O)c1ccc(NC(=O)CNC2CCCCC2)cc1.Cl | 13.7%
CCOc1ccc(C(=O)NC2CC(C)(C)NC(C)(C)C2)cc1.Cl | 7.37%
C[C@@H]1OC(Nc2ccc(N=Nc3ccccc3)cc2)[C@H](O)[C@H](O)[C@H]1O (some centres unmarked) | 15.1%
OC1CCC(NC(=S)Nc2ccc(SC(F)F)cc2)CC1 (centres unmarked) | 7.66%
CC1CCN(c2ccc([N+](=O)[O-])cn2)CC1 | 6.96%
C[C@@H](NC(=O)c1nc[nH]c1C(=O)N[C@@H](CCCCNC(=O)OC(C)(C)C)C(=O)OC(C)(C)C)c1ccccc1 | 3.23%

Compound | hERG current change (%, negative = inhibition) at 10uM
O=c1oc2ccccc2c(N2CCCCC2)c1[N+](=O)[O-] | -14.3%
CC(OC(=O)CCN=C1NS(=O)(=O)c2ccccc21)C(=O)c1ccccc1 (centres unmarked) | 7.33%
CCN1CCc2c(C#N)c(N3CCOCC3)nc(NCCO)c2C1 | 11.8%
COC(=O)c1cc(NC(=O)CC2SCCNC2=O)cc(C(=O)OC)c1 (centres unmarked) | 15.5%
CC1CC(c2ccccc2)n2nc(NC(=O)CCc3ccccc3)nc2N1 (centres unmarked) | -36.6%
COc1ccccc1NC(=O)CCc1nnc2ccc(N3CCC4(CC3)OCCO4)nn12 | -1%
O=C(O)c1cnc(-c2ccccc2)nc1Sc1ccc(Cl)cc1 | 3.92%
CCOP(=O)(OCC)C(NC(C)=O)C(Cl)(Cl)Cl (centres unmarked) | 10.1%
O=C(Nc1ccccc1)C1=C[C@H](c2csc3ccccc23)C[C@H](OCc2ccc(CO)cc2)O1 | 7.14%
CC(OC(=O)CCN=C1NS(=O)(=O)c2ccccc21)C(=O)N(C)c1ccccc1 (centres unmarked) | -14.7%
CCCOC(=O)c1ccc(-c2c(C)noc2-c2ccc(OC)cc2O)o1 | 9.02%
NC(=O)c1ccccc1NC(=O)c1cc(S(=O)(=O)N2CCCCC2)ccc1N1CCOCC1 | -73.9%
COc1cc(-c2cc(C(=O)NN3CCN(C)CC3)c3ccccc3n2)cc(OC)c1OC | 16.7%
Cc1c(-c2ccc(F)cc2)nc(N)c(C#N)c1-c1ccco1 | 6.39%
O=C1CCCc2ccccc2N1Cc1cccc(F)c1 | 11.4%
CCC(CC)c1nnc(NC(=O)c2cc([N+](=O)[O-])ccc2N2CCCCC2)s1 | 8.26%
Oc1ccc(Br)cc1CNc1ccccn1 | -15.7%
COC(=O)c1ccc(OC)c(CN2CCCN(Cc3ccc(F)cc3)S2(=O)=O)c1 | -10.2%
CC(C)C1Cc2[nH]c(=O)c(C(=O)O)cc2CO1 (centres unmarked) | -12.9%
Cc1c(Cl)cccc1NC(CC(=O)c1ccccc1)C(=O)OCC(=O)c1cccs1 (centres unmarked) | -5%
